# In all, about 43,000 compounds went through this assay and about 200 (0.47%) were called active. Not shown: some 12% with an inconclusive outcome. Calls follow the shape of the dose curve; as a rule, active = well fitted cell-killing curve with a large enough effect; inconclusive = small, poorly fitted or top-dose-only effect, or effect the other way; inactive = flat fitted curve, though single readings scatter. The list shows a part of the results.
# Assay: Cell viability qHTS assay in S16 Pmp22-F2sN cells; also: nearly all actives have a fitted effect of over 65% in size
# Details: S16 Pmp22-F2sN Schwann cells viability, CellTiter-Glo, 24 h; series mostly up to 57.5 µM; activity change, negative = cytotoxicity: at the top concentration
# Procedure, shortened: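 Viability was measured by CellTiter-Glo luminescence (15 min, room temperature). This followed 24 h at 37 °C of compound exposure (23 nL pin transfer) in S16 Pmp22-F2sN Schwann cells, 500-1,000 per well.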
# % is scaled to controls: 0 for no effect and ±100 for the full control effect.
row,Compound,"activity change, negative = cytotoxicity"
1,O=C(Nc1ccc(F)cc1Cl)C1Cc2ccccc2N1C(=O)c1ccccc1 (stereo unspecified),inactive: -1.5%
2,O=C(CCn1nc(-c2ccc(Cl)cc2)c2ccccc2c1=O)Nc1ccc(OC(F)(F)F)cc1,inactive: 11.9%
3,CC(=O)c1cccc(NC(=O)c2nc3ccccc3nc2N2CCCCC2)c1,inactive: 3.4%
4,CCC(=O)N1CCc2cc(S(=O)(=O)CCC(=O)N3CCN(c4ccc(C(C)=O)cc4)CC3)ccc21,inactive: -6.98%
5,CCOc1ccc(-c2cn3c(n2)sc2cc(C(=O)NCCc4ccc(OC)c(OC)c4)ccc23)cc1,inactive: 2.38%
6,Cc1ccc(C2=NN(CC(=O)NCCc3ccc(Cl)cc3)C(=O)CC2)cc1,inactive: -4.98%
7,CN1C(=O)C2(c3ccccc31)N(c1ccc(F)c(Cl)c1)C(=O)CS2(=O)=O (stereo unspecified),inactive: 8.96%
8,Cc1cc(C)c2c(n1)nn1c(C)c(CCC(=O)NCc3ccc(Cl)cc3)c(C)nc21,inactive: 3.92%
9,COC(=O)c1cc(S(=O)(=O)NCC2CCN(Cc3ccccc3F)CC2)c[nH]1,inactive: 27.8%
10,O=C(Nc1cc(F)ccc1F)c1cc2nc(-c3ccco3)cc(C(F)(F)Cl)n2n1,inactive: 4.83%
11,CCN1CCN(C(c2ccccc2)c2c(O)cc(C)n(Cc3ccco3)c2=O)CC1 (stereo unspecified),inactive: 7.38%
12,COc1ccc(CNC(=O)C2CCN(S(=O)(=O)c3ccc(C)cc3)CC2)cc1,inactive: 14.3%
13,Fc1ccc(Cc2cn3cc(-c4ccc(Cl)cc4)nc3s2)cc1,inactive: 14%
14,CC1Cc2cc(S(=O)(=O)N(C)c3ccc(Br)cc3)ccc2N1C(=O)C1CC1 (stereo unspecified),inactive: -15.7%
15,CCC1CCCCN1CCCNC(=O)c1cc2c(=O)n(CC)c3ccccc3c2s1 (stereo unspecified),inactive: 8.17%
16,COc1ccc(NC(=O)C2CCCN(S(=O)(=O)c3cccs3)C2)cc1 (stereo unspecified),inactive: 22.2%
17,CCN(CC)C(=O)c1sc2c(c1C)c(=O)n(-c1ccc(Cl)c(Cl)c1)c(=O)n2CC(=O)Nc1cccc(OC)c1,inactive: -15.9%
18,CCOC(=O)c1nnn(CC(=O)NC(=O)Nc2cccc(CC)c2)c1C(=O)OCC,inactive: -1.95%
19,O=C(COc1ccc(Cl)cc1)NCCc1csc(-c2ccc(F)cc2)n1,inactive: -0.126%
20,COC(=O)c1c(N)n(-c2ccc(OC)c(Cl)c2)c2nc3ccccc3nc12,inactive: 4%
21,COc1ccc(-c2nnc3c4ccccc4c(-c4ccccc4)nn23)cc1,inactive: -13%
22,O=C(Nc1ccccc1F)c1ccc(-c2ccccc2)s1,inactive: -1.22%
23,Cc1nn(C)c(C)c1S(=O)(=O)N(CC(=O)N1CCN(c2ccccc2)CC1)c1ccc(C(C)C)cc1,inactive: 2.84%
24,Cc1ccccc1NC(=O)c1ccc(F)c(S(=O)(=O)N(C)C2CCCCC2)c1,inactive: -14.3%

row,Compound,"activity change, negative = cytotoxicity"
1,CCCCCNC(=O)c1ccc2c(c1)nc(C)n2-c1cccc(C)c1,inactive: -25.1%
2,O=C(CCn1c(=O)c2cccn2c2ccccc21)Nc1ccc(F)cc1,inactive: 0.264%
3,Cc1ccc(C)c(NC(=O)Cn2c(=O)ccc3cc(S(=O)(=O)N4CCCC4)ccc32)c1,inactive: 2.63%
4,COc1ccccc1NC(=O)c1cc2c([nH]c1=O)CC(C)(C)CC2=O,inactive: -0.187%
5,COc1cccc2c1Oc1ncccc1N(C(=O)Nc1cccc(Cl)c1)C2,inactive: 15.3%
6,Cc1ccc(CNC(=O)c2cc(S(=O)(=O)N3CCCCCC3)cn2C)cc1,inactive: 19.6%
7,COc1ccc(CNS(=O)(=O)c2cnc(N)nc2)cc1,inactive: -1.25%
8,Cc1cccc(CNC(=O)c2ccc3c(c2)N(C)C(=O)C2CCCCN32)c1 (stereo unspecified),inactive: -27.9%
9,CCOc1ccc(NS(=O)(=O)c2ccc3[nH]cc(C(=O)NCc4ccccc4)c(=O)c3c2)cc1,inactive: 4.55%
10,Cn1nc(-c2ccc(C(=O)Nc3cccc(C(F)(F)F)c3)cc2)c2ccccc2c1=O,inactive: 9.33%
11,CCCCC(=O)OC1=C(C(=O)c2ccccc2)N(C)S(=O)(=O)c2ccccc21,inactive: 2.72%
12,CSc1ccc(CNC(=O)c2cc3cc(S(=O)(=O)N4CCCCC4)ccc3n2C)cc1,inactive: -9.89%
13,O=C(Nc1cccc(-c2nc3ccccc3o2)c1)c1cccc(Br)c1,inactive: 1.76%
14,CCOC(=O)c1c(Nc2cc(C)cc(C)c2)nnc(-c2ccccc2)c1-c1ccccc1,inactive: -15.6%
15,COc1ccc(Cn2ccc3nc(C)c(C(=O)Nc4ccc(OC(F)(F)F)cc4)cc3c2=O)cc1,inactive: 2.84%
16,COc1ccccc1CNS(=O)(=O)c1ccc(F)c(C(=O)Nc2cc(Cl)ccc2OC)c1,inactive: 12.8%
17,O=C(NCC(c1cccnc1)N1CCc2ccccc2C1)C(=O)Nc1ccccc1 (stereo unspecified),inactive: -8.63%
18,COc1ccccc1N1CCN(S(=O)(=O)c2c(C)nc3sc(C)c(C)n3c2=O)CC1,inactive: -0.155%
19,COc1cccc(CNC(=O)C2CCN(S(=O)(=O)N3CCC(C)CC3)CC2)c1,inactive: 10.6%
20,CC1CCN(S(=O)(=O)c2ccc3nc(Nc4ccc(C#N)cc4)ccc3c2)CC1,inactive: -7.12%
21,O=C(Nc1ccccc1)c1cn(-c2ccccc2)nc1-c1ccccc1,inactive: 2.21%
22,Cc1cccc(-n2c3nc(=O)[nH]c(=O)c-3cc3c(C)nn(-c4ccccc4)c32)c1C,inactive: -0.64%
23,COc1ccccc1NC(=O)CSC1=Nc2ccccc2N=C(c2ccc(F)cc2)C1,inactive: -12.7%
24,CCN(CC)C(=O)CSc1nc2ccccc2c(=O)n1Cc1ccco1,inactive: -1.14%

row,Compound,"activity change, negative = cytotoxicity"
1,Cc1ccc(NC(=O)Cn2c(-c3cncs3)nc3ccccc32)cc1Br,inactive: 1.76%
2,COc1ccc(Cl)cc1NC(=O)N1CC(=O)Nc2sc3c(c2C1c1ccccc1)CCCC3 (stereo unspecified),inactive: 9.23%
3,CCCc1nccn1S(=O)(=O)c1cc(Br)ccc1OC,inactive: 3.13%
4,COc1ccc(NC(=O)CN2C(=O)CCc3cc(S(=O)(=O)N4CCOCC4)ccc32)cc1Cl,inactive: 0.433%
5,COc1cc2c(C(=O)N(C)c3cc(Cl)ccc3OC)cn(CC(C)C)c(=O)c2cc1OC,inactive: -0.553%
6,CCN(C(=O)Cn1c(=O)n(CC2CCC(C(=O)NC)CC2)c(=O)c2sccc21)c1ccccc1 (stereo unspecified),inactive: 9.82%
7,Cc1nn(CCCC(=O)Nc2cccc(F)c2)c(=O)c2c1sc1ccccc12,inactive: 4.62%
8,Cc1ccccc1CNC(=O)CCC(=O)N1CC2CCCN2c2ccccc21 (stereo unspecified),inactive: 23.2%
9,Cc1cc(O)c(-c2ccnc3cc(-c4ccccc4)nn23)cc1Cl,inactive: 25.2%
10,CCc1ccc2c(c1)-c1ccccc1S(=O)(=O)N2CC(=O)N1CCC(C)CC1,inactive: -8.67%
11,COc1cccc(Cn2c(CNS(=O)(=O)c3ccc4c(c3)CCCC4)nc3cccnc32)c1,inactive: -23.9%
12,CC1CCN(S(=O)(=O)c2ccc3c(c2)N(CC(=O)N2CCN(c4ccccc4)CC2)C(=O)CO3)CC1,inactive: 2.5%
13,CC(=O)c1ccc(NC(=O)Cn2ncc3c(C)n(Cc4ccc(F)cc4)c(C)c3c2=O)cc1,inactive: 18.9%
14,COc1ccccc1C(=O)Nc1nc2nc(C)c(Cc3ccccc3)c(=O)n2[nH]1,inactive: -0.319%
15,COc1ccccc1CNc1ncnc2c1c(-c1ccccc1)cn2-c1cccc(C)c1,inactive: 4.11%
16,COc1ccc(Nc2ncc3c(n2)CCN(C(=O)OC(C)(C)C)C3)cc1,inactive: -0.142%
17,COc1ccccc1CN1CCN(C2CCN(C(=O)NC(C)C)CC2)C(=O)C1=O,inactive: 8.16%
18,Cc1ccc(Nc2cc(C(=O)NCc3cccs3)c3ccccc3n2)c(C)c1,inactive: -1.94%
19,Cc1ccc(CCNC(=O)c2cc(-c3ccc(Cl)cc3)n[nH]2)cc1,inactive: 0.506%
20,Cc1ccc(NC(=O)c2ccc3[nH]c(C)cc(=O)c3c2)c(C)c1,inactive: 8.1%
21,Cc1ccc(NC(=O)Cc2coc3c(C)c(C)ccc23)cc1Cl,inactive: -4.12%
22,CCOc1ccccc1C(=O)N(Cc1cccs1)c1ccc(Cl)cc1,inactive: -13.5%
23,COc1cc2ccccc2cc1C(=O)Nc1ccc2oc(-c3ccccc3)nc2c1,inactive: -2.13%
24,COc1ccc(C)cc1NC(=O)CC(=O)Nc1ccc2nc3n(c(=O)c2c1)CCCCC3,inactive: -14.9%

row,Compound,"activity change, negative = cytotoxicity"
1,O=C(NCCc1csc(-c2ccc(F)cc2)n1)c1c(F)cccc1Cl,inactive: 5.35%
2,O=C(COC(=O)c1cc(-c2ccccc2)nc2c(Cl)cccc12)c1ccc(F)cc1,inactive: -0.232%
3,CCOc1ccc(-n2c(=O)c3c(C)c(C)sc3n(Cc3cc(=O)n4cc(Cl)ccc4n3)c2=O)cc1,inactive: -8.51%
4,CC(C)CSc1oc(-c2ccco2)nc1S(=O)(=O)c1ccc(Br)cc1,inactive: -10.3%
5,O=C(NCc1ccco1)c1ccc2c(c1)N(Cc1ccccc1F)C(=O)c1ccccc1S2=O (stereo unspecified),inactive: 2.81%
6,COc1ccc(NC(=O)CSC2=Nc3ccccc3C3=NC(CCC(=O)NCCc4ccccc4)C(=O)N23)c(OC)c1 (stereo unspecified),inactive: 0.152%
7,CCn1cc(C(=O)N2CCN(c3ccc(OC)cc3)CC2)c(=O)c2cc(S(=O)(=O)N(C)C3CCCCC3)ccc21,inactive: -13.5%
8,COc1cccc(CNC(=O)c2nn(C)c3c2CS(=O)(=O)c2ccccc2-3)c1,inactive: -29.2%
9,COc1ccc(CNC(=O)c2cc(C)nc3c2c(C)nn3-c2cccc(Cl)c2C)cc1,inactive: -2.05%
10,CC(C)CN(CCCNC(=O)c1cn(C)c2ccc(S(=O)(=O)N(C)C3CCCCC3)cc2c1=O)CC(C)C,inactive: -4.04%
11,COc1cccc(NC(=O)C(CCSC)NC(=O)C2CCC(C)CC2)c1 (stereo unspecified),inactive: 1.74%
12,Cc1cccc(OC(=O)c2cc(-c3ccc(Cl)cc3)on2)c1C,inactive: 1.22%
13,COC(=O)c1ccc(NC(=O)CSc2n[nH]c(CC(C)C)n2)cc1,inactive: 0.129%
14,COc1ccc(CNC(=O)c2cc3cccc(OC)c3oc2=O)cc1,inactive: -1.66%
15,Cc1ccc(-c2nn(CC(=O)Nc3cccc(C(F)(F)F)c3)c(=O)c3ccccc23)cc1,inactive: 3.58%
16,Cc1ccc(CNC(=O)c2ccc3c(c2)N(Cc2cccc(C)c2)C(=O)CS3)cc1,inactive: 10.8%
17,Cc1oc(C)c2c(=O)cc(-c3ccc4c(c3)OCO4)cc(OC(=O)c3ccc(Cl)cc3)c12,inactive: 2.74%
18,Cc1ccc(-c2nonc2NC(=O)c2ccco2)cc1C,inactive: -4.68%
19,Cc1ccc(-c2nc3ccccc3[nH]2)cc1NC(=O)COc1cccc(C)c1C,inactive: 25%
20,COc1ccc(C)cc1NC(=O)CCn1nc(C)cc1C,inactive: 8.68%
21,Cc1cccc(C)c1NC(=O)CSCc1cnn(-c2ccccc2)c1-n1cccc1,inactive: -20%
22,CCC(Sc1nc2ccccc2c2nc(CCc3c(C)n[nH]c3C)nn12)C(=O)Nc1ccccc1F (stereo unspecified),inactive: -6.48%
23,COc1cccc(-c2noc(-c3cc4ccccc4oc3=O)n2)c1OC,inactive: 9.68%
24,O=C(NCc1ccc2c(c1)CCN2C(=O)c1ccc(F)cc1)c1c(F)cccc1F,inactive: 6.07%

# Source: PubChem BioAssay AID1508642 (National Center for Advancing Translational Sciences (NCATS), 2021)
